Measured values: the supplement of paper PMC3334620
Whole data set: some 33,000 sequences, median “E-score (-0.5 to 0.5)” near -0.054, cut for the highest 2% near 0.39. Some of the results follow.

Target: Ylr278c (UniProt Q05854)
Assay: PBM E-score (8-mer binding enrichment) (E-score (-0.5 to 0.5)); higher = stronger / more preferred TF binding; most listed sequences are background and not binding sites
Settings: protein concentration: 200 nM; construct: GST-DNA-binding domain
Summary of the method: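 Universal all-10-mer Agilent arrays, double-stranded by primer extension on fresh or once-stripped slides, were probed with about 100-200 nM GST-tagged yeast transcription factors made by PURExpress. Fluorescent anti-GST detected bound protein, and masliner normalised the scans. E-scores from the Universal PBM Analysis Suite were given to each ungapped eight-base word pooled with its reverse complement.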

Sequence | PBM E-score
GCCGATAA | 0.301
CGACCGCC | 0.104
TAAAATCA | -0.062
GCAGGGGC | -0.113
AGAAACCG | 0.0862
GTCTGATA | -0.261
TATTGGAA | -0.256
ACTTTACA | 0.00586
ATTGCCGG | 0.379
CAGCGCAC | -0.0458
AGGCTCGG | 0.135
CGCTCTAC | -0.131
CGGATAAA | 0.368
CCCGACTA | 0.196
TATGATAA | -0.0321
AAACGCAT | -0.123
TCGGGAAA | 0.35
GTCTAATA | -0.16
ATAATCAA | 0.00848
CCATCCGA | 0.0984
ATTTGACA | -0.0871
GCAATTTA | 0.0404
AGAGTGCC | -0.204
CGGCGGAG | 0.461

Sequence | PBM E-score
CTAAGGGC | -0.3
GATCGCTA | -0.0382
GCACTGGA | -0.277
AAAGTAGA | -0.187
CTCGACGA | -0.268
CCTGCTCG | -0.211
GCCAATCC | 0.251
CTCAGGGA | -0.226
ATGCGGCA | 0.0657
ACCGCGGC | 0.305
CAACCTGC | -0.0419
ACTACCGC | 0.0576
AAGGCTCG | -0.164
CCCTTCGG | 0.268
AGACTCCC | -0.167
TGCCTCAA | -0.0367
CACTCCAC | -0.139
AGACTCCT | -0.224
ATCTAGGC | -0.326
TCACGAAA | -0.0706
ACGCTTCG | -0.0176
CGCCGGCC | 0.367
ACTTTCTG | 0.0956
CGACGAAC | 0.151

Sequence | PBM E-score
CGCTTATA | 0.0184
CGTCTTTC | -0.015
AAGCAAAG | -0.195
AGATGCCC | -0.0185
CTGTGTCA | -0.142
GCAGTAGA | -0.167
CCTATTAC | -0.212
CGCGATCA | 0.0483
CTCTCCAC | -0.243
ACGTTTCT | -0.218
GCGAATGA | 0.107
AATCCAAC | -0.204
ACGACCCT | -0.145
CACCTCTG | -0.225
AGGTGGTA | 0.232
AACACACG | -0.0928
TGCACCAA | -0.332
TATGTTCA | -0.0845
AGGCTGCC | -0.106
CATACACC | 0.095
AACGTTGA | -0.0141
CAAGGGTA | -0.136
CGATTGTA | 0.114
ATTGCCTC | -0.0835

Sequence | PBM E-score
CTCGATTA | -0.102
CGGGCGTC | 0.236
CGGAGAGC | 0.389
AGCTAAAT | -0.248
ATATGGCC | 0.027
GAAAACTA | 0.0759
AGAGTTGC | 0.0814
GGAAACAC | 0.213
ACGTGGCT | -0.215
GCAAGGCA | -0.15
AATGCTTG | -0.151
TTGCTAAA | -0.142
GTCCGCCA | 0.293
GCAGATGC | -0.139
AAGCCAAT | 0.0109
CACAGGCG | -0.0948
TAACAAAA | 0.0261
TCGTTGCA | -0.265
GGCCACAC | 0.0375
ACATTGTA | -0.192
GCCGCAGA | 0.143
CATTTCAG | -0.0764
